Experimental data published in PMC12040169 (PLOS Biology, 2025).
The other results are listed elsewhere or left out.

These compounds were tested on T1, C. trachomatis L2/434/Bu expressing GFP (CTL2-GFP). Details: total inclusion area; 28.5 h, 10 µM; inhibitor.
T1 construct: L2/434/Bu GFP intracellular growth in HeLa cells
Parameters: species or system HeLa; C. trachomatis total inclusion area by high-content imaging, normalised to DMSO
Summary of the method: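 Bulk GFP and resorufin signals were read first. Wells were then fixed, stained with Hoechst and imaged to detect GFP inclusions and host nuclei. MICs followed the previously described calculation.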
For `CC(=O)N/N=C(\C)c1ccc(-n2cnnn2)cc1` [CBK261252], the “% of control remaining” value was 110.702. `CCN(C)Cc1cccc(CNc2ncnc3c2cnn3CCC#N)c1` [CBK305959] was tested, and the “% of control remaining” value was 56.1365. For `Cc1nn(C)cc1C(C)NC(=O)C1CC2C=CC1C21CC1` (centres unmarked) [CBK282088], the “% of control remaining” value was 88.4201. For `OC(CNCC1COc2ccccc2O1)C(F)(F)F` (centres unmarked) [CBK074834], the “% of control remaining” value was 83.1023. In the case of `Cn1cc(CN2CCC(c3cncc(-c4cccc(C(F)(F)F)c4)n3)CC2)cn1` [CBK286150], the “% of control remaining” value is reported as 119.669. In the case of `CC(=O)Nc1ccc(-c2nc3c4ccccc4c4ccc(I)cc4c3[nH]2)cc1` [CBK262667], the “% of control remaining” value is reported as 97.814. `O=C(Nc1ccncc1)OCCNC(=O)c1ccncc1` [CBK262150] was tested, and the “% of control remaining” value was 106.023. `CCNC(=O)N1CC2(CCN(CCOc3ccc(OC)cc3)CC2)c2ccccc21` [CBK144600T] was tested, and the “% of control remaining” value was 50.015. In the case of `COc1cc(C(C)c2cc3c(cc2OCC(=O)O)OCO3)cc(OC)c1OC` (centres unmarked) [CBK200109], the “% of control remaining” value is reported as 99.5984. For `OCCCNc1nccnc1-c1cccc(F)c1` [CBK088976], the “% of control remaining” value was 126.543. For `Cn1c(SCC(=O)Nc2cccc(C(=O)O)c2)nnc1-c1ccccc1` [CBK300479], the “% of control remaining” value was 97.7566. With `Cc1ccc(N(CC(=O)O)S(C)(=O)=O)cc1C` [CBK286978] the “% of control remaining” value was 68.4528. `CCN1CC(C(=O)Nc2nc3c(s2)CCCCCC3)CC1=O` (centres unmarked) [CBK281526] was tested, and the “% of control remaining” value was 108.301. `O=C(C1CC1)N1C[C@H]2CCCN(S(=O)(=O)c3cccs3)[C@H]2C1` [CBK282255] was tested, and the “% of control remaining” value was 114.383. For `CCc1cc(C(=O)NC(Cn2ccnc2)C(C)(C)C)cc(=O)[nH]1` (centres unmarked) [CBK304410], the “% of control remaining” value was 107.624. For `O=C(Nc1snnc1-c1ccc(Cl)cc1)c1ccc(OC(F)(F)F)cc1` [CBK153247], the “% of control remaining” value was 0.3214. For `CCC1SC2=NC(C)=C(C(=O)OCc3ccccc3)C(c3ccccc3)N2C1=O` (centres unmarked) [CBK293960], the “% of control remaining” value was 106.496. In the case of `O=C(CCN1C(=O)/C(=C\c2cccs2)SC1=S)Nc1cc(Cl)ccc1O` [CBK263643], the “% of control remaining” value is reported as 92.1689. With `CCN(Cc1ccc(OC)c(OC)c1)C(=O)CSc1nc(CC(=O)O)cs1` [CBK296643] the “% of control remaining” value was 94.5057. `Cc1cc(C)cc(NC(=O)C2C3C=CC(O3)C2C(=O)O)c1` (centres unmarked) [CBK262642] was tested, and the “% of control remaining” value was 99.7028. `CCCn1c(C)nnc1CN(CC1CCCO1)C1CCC(C)CC1` (centres unmarked) [CBK304485] was tested, and the “% of control remaining” value was 47.6879. In the case of `COc1nnc(-c2ccc(C)cc2)c2ccccc12` [CBK263466], the “% of control remaining” value is reported as 95.0262. In the case of `CN(C)CC1CCCCN1C(=O)C1CC(=O)N(c2cccc(F)c2)C1` (centres unmarked) [CBK282192], the “% of control remaining” value is reported as 56.4601. For `NNc1ccc(/C=C/c2ccc(NN)cc2S(=O)(=O)O)c(S(=O)(=O)O)c1` [CBK278163N], the “% of control remaining” value was 106.29. In the case of `CCOC(=O)N1CCC(NS(=O)(=O)c2ccc3c(c2)oc(=O)n3C)CC1` [CBK304666], the “% of control remaining” value is reported as 66.6701. `Cc1nc(C)n(CC2CCCN(S(=O)(=O)c3cnc4ccsc4c3)C2)n1` (centres unmarked) [CBK306274] was tested, and the “% of control remaining” value was 79.5974. With `Cc1ccc(C)c(C(C)NC(=O)C2CCCN(S(C)(=O)=O)C2)c1` (centres unmarked) [CBK304672] the “% of control remaining” value was 61.25. With `NS(=O)(=O)c1ccc(CCNC2CC(=O)N(Cc3ccccc3)C2=O)cc1` (centres unmarked) [CBK267439] the “% of control remaining” value was 103.812. With `Cc1[nH]c2cccc(C(=O)N(C)CCc3cn[nH]c3)c2c1C` [CBK283070] the “% of control remaining” value was 107.174. With `Cn1nnc2cc(NCC34CC3CN(C(=O)OC(C)(C)C)C4)ccc21` (centres unmarked) [CBK304758] the “% of control remaining” value was 48.9446. `O=C(CSc1ccc2nnc(-c3ccc(F)cc3)n2n1)N1CCCCC1` [CBK287520] was tested, and the “% of control remaining” value was 96.134. In the case of `N#Cc1cccc(CN2C[C@H](O)C[C@H]2c2nc(Cc3ccccc3)no2)c1` [CBK288842], the “% of control remaining” value is reported as 109.385. For `Cc1cc(CN(C)C(=O)c2cccc(NC(=O)C3CCCCC3)c2)no1` [CBK305722], the “% of control remaining” value was 49.2481. For `CN(C)CC(C)(C)CNC(=O)c1cc(-c2ccc(Cl)cc2)on1` [CBK116561], the “% of control remaining” value was 102.699. With `Cc1cccc(CN(Cc2ccccc2)C(=O)CCc2ccncc2)n1` [CBK282101] the “% of control remaining” value was 78.4604. In the case of `CC(C)CC(NS(=O)(=O)c1cccc2nsnc12)C(=O)O` (centres unmarked) [CBK217288], the “% of control remaining” value is reported as 96.6465. `COc1ccc(CN2CC(C(=O)O)C2)cc1Cn1cncn1` [CBK307284] was tested, and the “% of control remaining” value was 40.4787. `O=C(Nc1ccccc1)Nc1nc(=O)n(-c2ccccc2)s1` [CBK070710] was tested, and the “% of control remaining” value was 87.2133. In the case of `Fc1ccc(-c2cc(CC3(NCc4ccc5c(c4)OCO5)COC3)no2)cc1` [CBK289654], the “% of control remaining” value is reported as 89.5784. With `CCn1nc(C)c(-c2cncn2CCCOc2ccccc2C)c1C` [CBK281761] the “% of control remaining” value was 98.388. With `CC1(C)CC(N(Cc2ccccc2)Cc2ncc[nH]2)CC(C)(C)N1` [CBK283179] the “% of control remaining” value was 83.7649. `COc1ccc(CN(Cc2ccsc2)[C@@H]2COC[C@H]2c2ccc(F)cc2)cc1` [CBK286485] was tested, and the “% of control remaining” value was 60.4032. `CCN1CCN(C(=O)c2cc(C)[nH]n2)CC1` [CBK200377] was tested, and the “% of control remaining” value was 92.2187. In the case of `CCNC(=O)N1CC2(CCN(CCOc3ccccc3)CC2)c2ccccc21` [CBK122701], the “% of control remaining” value is reported as 41.7049. For `O=C1CC(c2cccnc2)c2sc(N3CCOCC3)nc2N1` (centres unmarked) [CBK287927], the “% of control remaining” value was 93.6847. For `Cc1ccc(S(=O)(=O)Nc2ccc3[nH]ccc3c2)cc1` [CBK153519], the “% of control remaining” value was 65.3572. `COc1cccc(CSC2=C(C#N)C(c3cccs3)C(C(=O)Nc3ccccc3)=C(C)N2)c1` (centres unmarked) [CBK267458] was tested, and the “% of control remaining” value was 100.538. For `COc1cc(S(=O)(=O)Oc2ccc(OCc3ccccc3)cc2)ccc1Cl` [CBK264132], the “% of control remaining” value was 92.8662. With `CC(=O)N1CCc2cc(NC(=O)c3cc4cc(C)ccc4o3)ccc21` [CBK281470] the “% of control remaining” value was 103.147. `CCC(CNC(=O)c1cc(-c2ccco2)nc2c(C(N)=O)ncn12)c1ccccc1` (centres unmarked) [CBK297779] was tested, and the “% of control remaining” value was 87.3844. `O=S(=O)(c1ccccc1)N1CCC(c2cc3ncccc3[nH]2)CC1` [CBK283397] was tested, and the “% of control remaining” value was 79.5764. For `CNc1ncnc2c1ncn2C1CC(O)C(CO)O1` (centres unmarked) [CBK201308], the “% of control remaining” value was 123.329. For `COc1cccc2ncn(CCc3n[nH]c(N)n3)c(=O)c12` [CBK307301], the “% of control remaining” value was 67.2968. With `COCCSc1nnc(NS(=O)(=O)Cc2ccccc2)s1` [CBK267535] the “% of control remaining” value was 92.8902. For `COc1ccc(C(N2CCOCC2)N2CCOCC2)cc1` [CBK261002], the “% of control remaining” value was 96.3037. For `Cc1nc(C(Cc2ccsc2)NC(=O)c2cnn(C)c2)sc1C` (centres unmarked) [CBK284779], the “% of control remaining” value was 66.3616. `COc1cc(OC)nc(CN2CCOC3(CCN(C(=O)OCc4ccccc4)CC3)C2)n1` [CBK161101T] was tested, and the “% of control remaining” value was 97.3707. `CC(Oc1ccccc1)C(=O)Nc1c[nH]c(=O)[nH]c1=O` (centres unmarked) [CBK266524] was tested, and the “% of control remaining” value was 67.9353. `O=C(O)CC1(CC(=O)N2CC[C@H]3NC(=O)N(c4ccc(F)cc4)C(=O)[C@H]32)CCCC1` [CBK289327] was tested, and the “% of control remaining” value was 102.55. With `Cc1cc(C(=O)O)cc(S(=O)(=O)N2CCOCC2)c1C` [CBK264497] the “% of control remaining” value was 94.7999. For `O=S(=O)(Nc1ccccn1)N1CCOCC1` [CBK269391], the “% of control remaining” value was 103.857. `O=C(CN1CCCCCC1)Nc1sc2c(c1C(=O)Nc1ccc(Br)cc1)CCC2` [CBK265076] was tested, and the “% of control remaining” value was 96.8613. `CCN(CCO)c1ccc(Nc2cc(-c3cccc([N+](=O)[O-])c3)ncn2)cc1` [CBK091002] was tested, and the “% of control remaining” value was 94.3605. In the case of `CC(C)(C)NC(=O)[C@@H]1CNC[C@]12Cc1ccccc1C(=O)N2` [CBK285294], the “% of control remaining” value is reported as 81.3301. With `O=S(=O)(Nc1cccc(-c2cnco2)c1)c1ccc(-c2cc(C(F)(F)F)on2)s1` [CBK067124] the “% of control remaining” value was 83.55. In the case of `Cc1nc2sccn2c1CN1CCC(O)(c2ccc(F)cc2)CC1` [CBK282792], the “% of control remaining” value is reported as 60.9935. For `COCCCNC(=O)CN1CCCCC1Cn1nc(C)cc1C` (centres unmarked) [CBK304009], the “% of control remaining” value was 59.893. For `Cc1nc(SCC(=O)c2cc(Cl)ccc2Cl)c2ccccc2n1` [CBK297543], the “% of control remaining” value was 94.0518. `O=C(Nc1cccc(S(=O)(=O)N2CCOCC2)c1)c1cc(-c2cccnc2)nc2ccc(Cl)cc12` [CBK267720] was tested, and the “% of control remaining” value was 100.539. `COc1ccc(CN(C)c2c(C)nc3c(OCCc4cccc(OC)c4)cccn23)cc1` [CBK147467] was tested, and the “% of control remaining” value was 113.342. In the case of `CCN1CC(C(=O)N2CCN(C(=O)c3ccccc3F)CC2)CC1=O` (centres unmarked) [CBK282937], the “% of control remaining” value is reported as 93.9584. With `COc1ccc(S(=O)(=O)NC(C)C(=O)NCc2ccccn2)cc1Cl` (centres unmarked) [CBK269275] the “% of control remaining” value was 95.1696. In the case of `CN(CC(=O)O)C(=O)c1ccc(S(=O)(=O)N2CCCC2)cc1` [CBK265724], the “% of control remaining” value is reported as 91.1301. `O=C(O)CCC(=O)N1C[C@@H]2C[C@H](C1)c1ccc(-c3ccc4ccccc4c3)c(=O)n1C2` [CBK289179] was tested, and the “% of control remaining” value was 96.9068. With `C[C@@H](Nc1nc(-c2cc(C(F)(F)F)cc(C(F)(F)F)c2)cnc1N)c1ccccc1` [CBK063720] the “% of control remaining” value was 41.6135. With `Cc1nn(C)c(Cl)c1S(=O)(=O)NCCc1c[nH]c2ccccc12` [CBK067310] the “% of control remaining” value was 82.554. In the case of `COc1ccccc1Oc1ccc([N+](=O)[O-])cc1F` [CBK002850], the “% of control remaining” value is reported as 82.5859. `COCCc1nc(C2CCC2)n(Cc2ccccc2C)n1` [CBK307238] was tested, and the “% of control remaining” value was 103.239. With `CCc1nn(CC(=O)N2CCCCC2C)c(=O)c2cc3occc3n12` (centres unmarked) [CBK283676] the “% of control remaining” value was 118.024. With `COc1ccc(CCC(=O)NC[C@H]2CC[C@H](c3cc(C(N)=O)c4ccccc4n3)CC2)cc1` [CBK285920] the “% of control remaining” value was 126.136.
